Each structure is given as a SMILES string. Screen size: about 48,000 compounds; about 450 (0.94%) were called active. Inconclusive results (about 19%) are left out. Calls follow the shape of the dose curve; as a rule, active = well fitted inhibition curve with a large enough effect; inconclusive = small, poorly fitted or top-dose-only effect; inactive = no such curve, though single readings can be large or run the other way. Some of the results follow.

The assay is described as follows: Primary qHTS for Identification of Small Molecule Inhibitors of Huntingtin Promoter Activity. Also: nearly all actives have a fitted effect of over 50% in size. To be noted: HEK293 HTT promoter firefly luciferase reporter (activity 0% = vehicle and -100% = no light), 24 h; series mostly up to 57.5 µM; activity change, negative = inhibition: at the top concentration. A digest of the protocol: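 HEK293 cells carrying firefly luciferase reporters were seeded at 2,500 per well in Opti-MEM and cultured for 24 h. They were then treated with compounds at up to 57.5 uM final for 24 h at 37 degrees C before Dual-Glo luminescence readout.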
Take `COc1cc(NC(=O)Cn2c(=O)n(Cc3ccco3)c(=O)c3sc4ccccc4c32)cc(OC)c1`: the “activity change, negative = inhibition” value is inactive: -8.53%.
Turning to `CCN(CC)C(=O)c1sc2c(c1C)c(=O)n(-c1ccc(Cl)c(Cl)c1)c(=O)n2Cc1ccccc1C#N`, the “activity change, negative = inhibition” value was inactive: -12.6%.
Consider `COCCCNc1oc(/C=C/c2cc(OC)c(OC)c(OC)c2)nc1C#N`, for which the “activity change, negative = inhibition” value was inactive: 10.2%.
Turning to `Cc1ccc(N2CCN(C(=O)c3c(C)oc4ncn(CC(C)C)c(=O)c34)CC2)c(C)c1`, the “activity change, negative = inhibition” value was inactive: -4.53%.
For `Cc1cccc(NC(=O)CSc2ncc3c(n2)-c2ccccc2N(Cc2ccc(F)cc2)S3(=O)=O)c1C` the value was inactive: -30.1%.
Take `Cc1cccc(CCNC(=O)c2ccc3c(c2)N(Cc2ccccc2F)C(=O)c2ccccc2S3)c1`: the “activity change, negative = inhibition” value was inactive: -12.5%.
`CN(C)c1ccc(-c2nc(-c3cc4cc(Cl)ccc4oc3=O)cs2)cc1`: the “activity change, negative = inhibition” value is inactive: -5.51%.
For `Cc1ccc(Oc2c(C(F)(F)F)oc3c(CN4CCC(C)CC4)c(O)ccc3c2=O)cc1` the value was inactive: -19.9%; for `CCc1cccc(NC(=O)CCC(=O)N2CCSc3ccccc32)c1`, inactive: -22.9%.
With `CCc1ccc(C(=O)c2cn(CC(=O)Nc3cc(C)ccc3C)c3nc(C)ccc3c2=O)cc1`, the “activity change, negative = inhibition” value is inactive: -2.01%.
For `CCN(CC)C(=O)c1c(-c2ccccc2)c(-c2ccccc2)nn(C)c1=O` the value was inactive: -2.45%; for `O=C(CSc1nnc(-c2cccs2)o1)Oc1ccccc1`, inactive: -0.361%; for `O=C(CSc1nnc(-c2ccccc2)o1)c1cccc([N+](=O)[O-])c1`, inactive: -1.21%.
For the compound `O=C(Cn1ncc2c3ccccc3n(Cc3ccc(Cl)cc3)c2c1=O)NCc1ccccn1`, the “activity change, negative = inhibition” value is inactive: -0.112%.
Regarding `NC(=O)c1ccccc1NC(=O)c1ccc(-c2ccc(Br)cc2)o1`, the “activity change, negative = inhibition” value is inactive: 73.1%.
Take `CCN(CC)CCCNC(=O)c1ccc2c(=O)n(CCc3ccccc3)c(=O)[nH]c2c1`: the “activity change, negative = inhibition” value was inactive: 7.88%.
Take `CCOc1ccc(C(=O)Nc2ccc3nc(SCCOc4ccccc4)sc3c2)cc1`: the “activity change, negative = inhibition” value was inactive: -3.93%.
For `CC(=O)c1cccc(NC(=O)Cn2nc(C)n3cccc3c2=O)c1` the value was inactive: -12.3%; for `CCC(Sc1nc2cc(OC)c(OC)cc2c2nc(-c3ccccc3)nn12)C(=O)Nc1cccc(C)c1` (stereo unspecified), inactive: -1.01%.
For `COc1ccc(NC(=O)C2=C(C)Nc3nc(SCc4ccccc4C)nn3C2c2cc(OC)c(O)c(OC)c2)cc1` (stereo unspecified), the “activity change, negative = inhibition” value is inactive: -7.25%.
As for `Cc1ccc(CSc2nnc(CCNC(=O)OC(C)(C)C)o2)cc1`, the “activity change, negative = inhibition” value was inactive: -18.5%.
`O=C(NCc1ccccc1Cl)c1ccc(CSCc2ccccc2Cl)o1`: the “activity change, negative = inhibition” value is inactive: -17.9%.
Take `COc1ccc(OC)c(NC(=O)CSc2nnc3ccc4ccccc4n23)c1`: the “activity change, negative = inhibition” value is inactive: -8.05%.
Take `CCc1ccc(NC(=O)CCn2nc(-c3ccccc3OC)c3c(C)cc(C)nc32)cc1`: the “activity change, negative = inhibition” value is inactive: -17.4%.
For the compound `Cc1ccc(-c2nnc(Nc3cccc(O)c3)c3ccccc23)cc1S(=O)(=O)N1CCOCC1`, the “activity change, negative = inhibition” value was inactive: 1.03%.
For the compound `COc1ccc(-c2noc(CC(=O)Nc3ccc(F)cc3F)n2)cc1`, the “activity change, negative = inhibition” value is inactive: -6.7%.
`COc1ccccc1OC(C)C(=O)Nc1ccc(-c2nc3ccccc3s2)cc1` (stereo unspecified): the “activity change, negative = inhibition” value was inactive: 44.8%.
For `COc1ccc(NC(=O)CCn2c(=O)c3cccn3c3cccnc32)c(OC)c1`, the “activity change, negative = inhibition” value was inactive: 6.78%.
For the compound `CCC(C(=O)NCc1ccccc1)n1nc(C)c2sc3ccccc3c2c1=O` (stereo unspecified), the “activity change, negative = inhibition” value is inactive: -9.12%.
As for `CN(Cc1ccccc1)C(=O)Nc1ccc2c(c1)N(C)C(=O)c1ccccc1S2`, the “activity change, negative = inhibition” value is inactive: -23.8%.
As for `COc1ccc(-c2cc(C(=O)OC(C)C(=O)c3ccccc3)c3cccc(Cl)c3n2)cc1` (stereo unspecified), the “activity change, negative = inhibition” value is inactive: 12.5%.
As for `c1ccc(Nc2c(-c3c[nH]c4ccccc34)nc3ccccn23)cc1`, the “activity change, negative = inhibition” value is inactive: 34%.
For `CC(C)Nc1ccc(-c2nc(-c3ccco3)no2)cc1[N+](=O)[O-]` the value was inactive: 1.46%; for `CC(C)CCOC(=O)c1ccc(N(C)C)cc1`, inactive: 38.5%.
With `Cc1ccc2nc(N3CCC(C(=O)N4CCN(c5cccc(Cl)c5)CC4)CC3)[nH]c2c1`, the “activity change, negative = inhibition” value is inactive: -18.1%.
On to `CCOCCCNC(=O)C(c1ccc(C)cc1)N(Cc1ccc2c(c1)OCO2)C(=O)c1ccc(NC(C)=O)cc1` (stereo unspecified), for which the “activity change, negative = inhibition” value was inactive: 6.71%.
As to `CCC(C)NC(=O)c1ccccc1NC(=O)CN1C(=O)c2cccc3cccc1c23` (stereo unspecified), the “activity change, negative = inhibition” value was inactive: -14.3%.
Consider `COc1cc2cc(CNc3ccc(C)cc3)c(=O)n(CC(=O)Nc3ccc(F)cc3F)c2cc1OC`, for which the “activity change, negative = inhibition” value was inactive: 34.2%.
In the case of `CC(C)NC(=O)CN1C(=O)COc2ccc(S(=O)(=O)N3CCCCCC3)cc21`, the “activity change, negative = inhibition” value was inactive: -15.6%.
With `COc1cc(C(=O)NCC(c2cccs2)S(=O)(=O)c2ccc(F)cc2)cc(OC)c1OC` (stereo unspecified), the “activity change, negative = inhibition” value was inactive: -21.3%.
In the case of `Cc1cccc(OCC(=O)Nc2ccc(Cl)c(-c3nc4ncccc4o3)c2)c1C`, the “activity change, negative = inhibition” value was inactive: -9.97%.
In the case of `CC1CC(OC(=O)C(O)c2ccccc2)CC(C)(C)N1C` (stereo unspecified), the “activity change, negative = inhibition” value was inactive: 6.35%.
As for `Cc1cccc(NC(=O)c2nnn(CC(=O)Nc3ccc(C(C)C)cc3)c2N)c1C`, the figure is inactive: -5.97%; as for `CCC(=O)N1CCc2cc(Br)cc(S(=O)(=O)CCC(=O)NCc3ccc(Cl)cc3)c21`, inactive: -13.3%; as for `CCOc1ccccc1NC(=O)CN(C)S(=O)(=O)c1ccc2nc(C)sc2c1`, inactive: -14.7%.
As for `CSC1=NC2(CCN(C(=O)NC3CCCCC3)CC2)N=C1c1ccc(C)c(C)c1`, the figure is inactive: -20.4% [at 11.5 µM]; as for `Cc1ccc(CNC(=O)CC(C)S(=O)(=O)c2cc3c(cc2C)NC(=O)CO3)cc1` (stereo unspecified), inactive: -6.04%; as for `Cc1ccc(NC(=O)CCc2nnc3n(C)c(=O)c4sccc4n23)cc1C`, inactive: -1.8%.
As for `CC(C)Oc1ccc(C(=O)N(Cc2ccco2)c2ccccn2)cc1`, the figure is inactive: 22.7%; as for `Cc1ccc(C)c(NC(=O)CN2C(=O)C(C)(C)c3ccccc32)c1`, inactive: -10.9%; as for `COc1ccc(Br)cc1CNC(=O)c1cc2n(n1)CCCN(Cc1ccc(C)cc1)C2=O`, inactive: -30.1%.
For the compound `COC(=O)c1scc(-c2ccc(C)cc2)c1S(=O)(=O)N1CCN(c2cccc(OC)c2)CC1`, the “activity change, negative = inhibition” value is inactive: -26.6%.
For `CCc1nnc(SC(CC)C(=O)Nc2cccc(OC)c2)c2cc3oc(C)cc3n12` (stereo unspecified) the value was inactive: -1.01%.
For `Cc1ccc(Sc2c(C)nn(C(C)(C)C)c2OC(=O)C(C)(C)C)cc1`, the “activity change, negative = inhibition” value is inactive: -10.5%.
Consider `CCOC(=O)c1ccc(NC(=O)CC2C(=O)OCCN2CC)cc1` (stereo unspecified), for which the “activity change, negative = inhibition” value was inactive: -0.861%.
On to `CCN(c1ccccc1)c1nnc(NC(=O)Nc2ccccc2F)s1`, for which the “activity change, negative = inhibition” value is inactive: -29.8%.
Regarding `Cc1c2cnn(CC(=O)Nc3cccc(C(F)(F)F)c3)c(=O)c2c(C)n1Cc1ccccc1Cl`, the “activity change, negative = inhibition” value is inactive: -27%.
As to `CCOC(=O)N1CCc2c(sc3c2c(=O)n(-c2ccc(CC)cc2)c(=O)n3CC(=O)c2ccc(F)cc2)C1`, the “activity change, negative = inhibition” value was inactive: -4.83%.
Turning to `COc1ccccc1/C=C/c1nc(C#N)c(N(C)C)o1`, the “activity change, negative = inhibition” value was inactive: 78.8%.
For `CCN(C(=O)CSc1nc2ccccc2n1Cc1cc(C)ccc1C)c1ccccc1` the value was inactive: 0%; for `Cc1c2cnn(CC(=O)NC(C)C)c(=O)c2c(C)n1Cc1ccccc1Cl`, inactive: 24.3%.

The values above are taken from PubChem BioAssay AID1508623 (National Center for Advancing Translational Sciences (NCATS), 2021).
